Assay results: patent publication US20030181375A1, “Rapid phenotypic cell-based HIV assay” (priority 2002, published 2003)
Like-named read-outs stand apart in the source and are kept apart here.

Columns and labels:
HIVBru = experiment: HIV drug susceptibility assay in R3/X4/R5 cells, HIVBru
[1] = tested on: HIV clinical isolate 93000016; experiment: HIV drug susceptibility assay in R3/X4/R5 cells, clinical isolate 93000016; settings: for % GFP + CELLS: 48 hr, no-drug control 84.4%
[2] = tested on: HIV clinical isolate A018-H112-2; experiment: HIV drug susceptibility assay in R3/X4/R5 cells, pre-AZT clinical isolate; assay type: cell-based; settings: average of four determinations
HIV 89.6 = experiment: HIV drug susceptibility assay in R3/X4/R5 cells, HIV 89.6
[3] = tested on: HIV clinical isolate A018-G910-6; experiment: microbe, parasite or virus in culture; assay type: cell-based; settings: average of four determinations
[4] = tested on: HIV clinical isolate 93000029; experiment: HIV drug susceptibility assay in R3/X4/R5 cells, clinical isolate 93000029; settings: for % GFP + CELLS: 48 hr, no-drug control 34.1%
[5] = tested on: HIV clinical isolate 93000057; experiment: HIV drug susceptibility assay in R3/X4/R5 cells, clinical isolate 93000057; settings: for % GFP + CELLS: 48 hr, no-drug control 10.7%
HIVIIIB = experiment: HIV drug susceptibility assay in R3/X4/R5 cells, GFP by flow cytometry, cell free HIVIIIB; assay type: cell-based
[6] = Human immunodeficiency virus 1, read-out: Average IC50
[7] = read-out: Average IC50, average of four determinations

Nc1ccn([C@@H]2CS[C@H](CO)O2)c(=O)n1 [3TC, Lamivudine]
IC50 (HIVBru; [6]): 1020 ± 130 nM

CC(C)Nc1cccnc1N1CCN(C(=O)c2cc3cc(NS(C)(=O)=O)ccc3[nH]2)CC1 [DLV, Delavirdine]
IC50 [1, 6]: 50 ± 20 nM
IC50 ([2]; Human immunodeficiency virus 1): 40 ± 10 nM
IC50 (HIV 89.6; [6]): 30 ± 5 nM

Nc1nc(NC2CC2)c2ncn([C@H]3C=C[C@@H](CO)C3)c2n1.O=C(O)CCC(=O)O [ABC, Abacavir Succinate]
IC50 [1, 7]: 1600 ± 60 nM
IC50 [2]: 2520 ± 580 nM
IC50 [3]: 2250 ± 200 nM
IC50 (HIV 89.6; [7]): 1660 ± 540 nM
IC50 (HIVBru; [7]): 1160 ± 390 nM

Cc1cn([C@H]2C[C@H](N=[N+]=[N-])[C@@H](CO)O2)c(=O)[nH]c1=O [AZT, Zidovudine]
% GFP + CELLS ([4]; AZT 0.1 μM, 3.5 × 10^10 COPIES/ml): 1.2%
% GFP + CELLS ([4]; AZT 1.0 μM): 0.6%
% GFP + CELLS ([4]; AZT 10 μM): 1.1%
IC50 ([4]; Human immunodeficiency virus 1): 40 nM
% GFP + CELLS ([1]; AZT 0.1 μM, 3.3 × 10^10 COPIES/ml): 7.1%
% GFP + CELLS ([1]; AZT 1.0 μM): 1.6%
% GFP + CELLS ([1]; AZT 10.0 μM): 1.6%
IC50 ([1]; Human immunodeficiency virus 1): 60 nM
IC50 [1, 6]: 60 ± 40 nM
% GFP + CELLS ([5]; AZT 0.1 μM, 1.2 × 10^10 COPIES/ml): 2.6%
% GFP + CELLS ([5]; AZT 1.0 μM): 0.7%
% GFP + CELLS ([5]; AZT 10.0 μM): 0.7%
IC50 ([5]; Human immunodeficiency virus 1): 70 nM
IC50 ([2]; Human immunodeficiency virus 1): 190 ± 20 nM
IC50 (HIVIIIB; Human immunodeficiency virus 1, Table 3, lymphotropic virus, read-out: IC50): 100 nM
% GFP + CELLS (HIVIIIB; Table 3, AZT 0.1 μM, no-drug control 71.4%): 35.5%
% GFP + CELLS (HIVIIIB; Table 3, AZT 1.0 μM, no-drug control 71.4%): 31.5%
% GFP + CELLS (HIVIIIB; Table 3, AZT 10.0 μM, no-drug control 71.4%): 29.6%
% GFP + CELLS (HIVIIIB; Table 4, AZT 0.1 μM, 48 hr, no-drug control 13.8%): 0.8%
% GFP + CELLS (HIVIIIB; Table 4, AZT 1.0 μM, 48 hr, no-drug control 13.8%): 0.7%
% GFP + CELLS (HIVIIIB; Table 4, AZT 10 μM, 48 hr, no-drug control 13.8%): 0.5%
IC50 ([3]; Human immunodeficiency virus 1): > 20000 nM
IC50 (HIV 89.6; [6]): 30 ± 9 nM
